Results taken from the RNAGym collection of RNA variant scans (doi:10.7554/elife.90254).
Read counts are not given, so values of variants with three or more changes are uncertain.

B1: LINE1-mini (parent)
chain: GGCAGAGCUCAACACAGCGUGGCAAAGUGGCUGUGGCUAGACUGCC

Variants of: B1
Test: self-cleavage, relative activity (ratio to wild type); higher = more cleavage; in vitro, sequencing; the parent is a self-cleaving ribozyme

Variant | self-cleavage
A12U G33C C37A A39G G40C A41G | 0.01
A12U G33C C46U | 0.01
A12U G35A G44U | 0.03
A12U U20A A24G G36A | 0.01
A12U U20A G40A | 0.1
A12U U20A U38A A41G C42U | 0.02
A12U U20C A25C C31A G44A | 0
A12U U20C A26U | 0.06
A12U U20C G21A U32C | 0.27
A12U U20G G22C C23A | 0.29
A12U U20G G29C G35C G40A | 0.05
A12U U28A C37A U43A C46U | 0.01
A12U U28A U32G | 0.06
A12U U28G C37U | 0.01
A12U U28G G29C U38C C46A | 0.02
A12U U28G G29U A39G A41C | 0.02
A12U U32A C37U | 0.03
A12U U32C G44C C45U | 0.02
A12U U32G C45U | 0.01
A12U U34A G44U C45U C46A | 0.03
A12U U34C C37G C45G | 0.04
A12U U34G G35U | 0.05
A12U U34G G36U C46A | 0.03
A12U U38A G44U | 0.04

Variant | self-cleavage
C13A A14C A25C | 0.13
C13A A14C C23A | 0.81
C13A A14C C37G A41C C42A | 0.01
C13A A14C G17C C37A | 0.07
C13A A14C G21A C23G G30U G44U C45A | 0.04
C13A A14C G22A C46U | 0.05
C13A A14C G27U | 0.04
C13A A14C G29U G30U C42G | 0.03
C13A A14G C15A U20C A39U | 0.03
C13A A14G C18U G21U | 0.04
C13A A14G C18U U20C C23U G35A | 0.28
C13A A14G G17U A24C | 0.02
C13A A14G G19A C23U G40U G44U | 0.07
C13A A14G G21C U28C | 0.78
C13A A14G G29C A39C | 0.03
C13A A14G U20A C31A U43A | 0.03
C13A A14G U38G | 0.02
C13A A14U A16C | 0.06
C13A A14U A16U G17U G21C | 0.08
C13A A14U A26G G36C | 0.01
C13A A14U C15A U38A | 0.16
C13A A16C C45A | 0.02
C13A A16C G17A G21A C37U | 0.11
C13A A16C G17U C23G | 0.01

Variant | self-cleavage
C13A A16C G22A U34A | 0.09
C13A A16C G35U | 0.08
C13A A16G A24U U32C | 0
C13A A16G C37U | 0.02
C13A A16G G44U | 0.02
C13A A16U A24U | 0.31
C13A A16U C18A C31U | 0.09
C13A A16U C18A G29C G44U | 0.01
C13A A16U C23G U43A | 0.14
C13A A16U C31A | 0.03
C13A A16U G19A C23A | 0.08
C13A A16U G36A G44C | 0.05
C13A A24C A39G | 0.1
C13A A24C G40U | 0
C13A A24G G27U | 0.04
C13A A24G G36C | 0.04
C13A A24U A39C | 0.03
C13A A24U G27C C45G | 0.12
C13A A24U G27C G44C | 0.08
C13A A24U G27U G30A U32A C42A | 0.01
C13A A24U G30U G36U A39C | 0.21
C13A A24U G35C C45U | 0.06
C13A A24U U32G G35A G40C | 0.03
C13A A25C G27C G35U | 0.03

Variant | self-cleavage
C13A A25C U28G G40A U43A | 0.02
C13A A25G C42U | 0.04
C13A A25G C45A | 0.01
C13A A25G G36A | 0.03
C13A A25G G36U | 0.09
C13A A25U C46A | 0.09
C13A A25U G33U G44A | 0
C13A A25U G36U | 0.03
C13A A26C C31A | 0.03
C13A A26C G30U | 0.01
C13A A26C G36U C37G | 0.06
C13A A26G G35A C46G | 0.03
C13A A26G G36U C42U | 0.01
C13A A26G U43C | 0.03
C13A A26U A41U G44A | 0.09
C13A A26U C37U | 0.4
C13A A26U U28C G33C C42U | 0.03
C13A A39C G40A C42A | 0.07
C13A A39G A41G | 0.09
C13A A39G G40U | 0.27
C13A A39U C45G | 0.25
C13A A41C C46U | 0.03
C13A A41U C46U | 0.1
C13A C15A A24U | 0.05

Variant | self-cleavage
C13A C15A A26U | 0.05
C13A C15A A41G | 0.01
C13A C15A C18U G21A | 0.08
C13A C15A C23A G27C | 0.17
C13A C15A C23U | 0.7
C13A C15A G17C G44U | 0.02
C13A C15A G17U G27U G29A | 0.4
C13A C15A G22A G36C | 0.02
C13A C15A G29A C37A | 0.13
C13A C15A G30C U38C A41C | 0.04
C13A C15A G33C | 0.01
C13A C15A G40C | 0.02
C13A C15A U20G | 0.02
C13A C15G C23A U38A G40A C45G | 0.01
C13A C15G G21C A39G G40C | 0.01
C13A C15G U20A G30U | 0
C13A C15U A24U C42G | 0.12
C13A C15U C37G | 0.07
C13A C15U C46A | 0.05
C13A C15U G19U G30U C45A | 0.01
C13A C15U U28C C31U G44U | 0.16
C13A C15U U38C | 0.2
C13A C18A C23U G35U | 0.47
C13A C18A G19U A24U U28A | 0.04

Variant | self-cleavage
C13A C18A G30U | 0.06
C13A C18G C23A | 0.09
C13A C18G C31G G36U | 0.04
C13A C18G G21A C46U | 0.07
C13A C18G G21U U28C C42U G44U | 0.03
C13A C18G G27U G33A C37A | 0.03
C13A C18G G29A | 0.03
C13A C18U A25U A26G U28C G30U C37U A39U | 0.21
C13A C18U C37U | 0.1
C13A C18U G33A | 0.05
C13A C18U G36U A39G | 0.19
C13A C18U G44C | 0.07
C13A C18U U32C G36U | 0.06
C13A C18U U43G G44A | 0.1
C13A C23A A24G | 0.1
C13A C23A A24U A41U | 0.11
C13A C23A A26U C37A | 0.02
C13A C23A C46U | 0.22
C13A C23A G29A | 0.04
C13A C23A G29U G44A | 0.05
C13A C23A U28C G29U | 0.01
C13A C23A U32A | 0.06
C13A C23G A25U G35U | 0.25
C13A C23G C42U | 0.1

Variant | self-cleavage
C13A C31A G33A | 0.1
C13A C31A G33C G40C | 0.01
C13A C31A G40C | 0.13
C13A C31G A41C | 0.07
C13A C31U C37U | 0.26
C13A C31U G40C G44C C45U | 0.01
C13A C31U U32G G36U C46G | 0.03
C13A C37A C46U | 0
C13A C37G A39U G40U | 0.02
C13A C37G A41U | 0.03
C13A C37U C42G | 0.01
C13A G17A A39U U43G G44C | 0.08
C13A G17A G19U C46A | 0.02
C13A G17A G27U | 0.14
C13A G17A G30A U32C G40U | 0.03
C13A G17A G36C | 0.03
C13A G17A G44C | 0.03
C13A G17A U20C G35U | 0.13
C13A G17C C31U U43A | 0.07
C13A G17C G35C | 0.24
C13A G17C U20G C23U U28C G36A A41U | 0.07
C13A G17U A26U | 0.08
C13A G17U A39C | 0.14
